Measured values: US20200247856A1 (SHIRE HUMAN GENETIC THERAPIES, published 2020)

T1: Activin A (R&D Systems, Catalog number 338-AC-050 CF) (UniProt P08476 311-426)
T1 sequence (looked up): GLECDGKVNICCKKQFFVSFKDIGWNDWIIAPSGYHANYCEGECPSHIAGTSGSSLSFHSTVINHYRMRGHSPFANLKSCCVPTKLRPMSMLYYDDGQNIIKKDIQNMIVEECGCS

T2: Myostatin (R&D Systems, Catalogue number 788-G8-010/CF) (UniProt O14793 267-375)
T2 sequence (looked up): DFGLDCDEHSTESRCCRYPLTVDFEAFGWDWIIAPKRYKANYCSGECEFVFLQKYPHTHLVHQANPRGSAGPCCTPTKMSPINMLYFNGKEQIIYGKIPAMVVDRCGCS

T3: BMP-10 (R&D Systems, Catalogue number 2926-BP-025CF) (UniProt O95393 317-424)
T3 construct: Bought protein; also called bone morphogenic protein-10
T3 sequence (looked up): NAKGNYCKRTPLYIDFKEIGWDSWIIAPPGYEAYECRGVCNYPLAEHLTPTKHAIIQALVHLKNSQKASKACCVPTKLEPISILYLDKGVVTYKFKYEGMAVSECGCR

T4: BMP-9 (R&D Systems, Catalogue number 3209-BP-010CF) (UniProt Q9UK05 320-429)
T4 construct: Bought protein; also called bone morphogenic protein-9
T4 sequence (looked up): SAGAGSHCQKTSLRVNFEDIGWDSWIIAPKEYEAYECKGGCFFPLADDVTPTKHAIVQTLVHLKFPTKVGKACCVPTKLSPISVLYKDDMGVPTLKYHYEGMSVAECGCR

B1: FS315K(81,82)E-hFcLALA (Fc fusion)
chain: GNCWLRQAKNGRCQVLYKTELSKEECCSTGRLSTSWTEEDVNDNTLFKWMIFNGGAPNCIPCKETCENVDCGPGKKCRMNEENKPRCVCAPDCSNITWKGPVCGLDGKTYRNECALLKARCKEQPELEVQYQGRCKKTCRDVFCPGSSTCVVDQTNNAYCVTCNRICPEPASSEQYLCGNDGVTYSSACHLRKATCLLGRSIGLAYEGKCIKAKSCEDIQCTGGKKCLWDFKVGRGRCSLCDELCPDSKSDEPVCASDNATYASECAMKEAACSSGVLLEVKHSGSCNSISEDTEEEEEDEDQDYSFPISSILEW[no letters for human IgG1 Fc with changes]
B2: FS315K(82,84)E-hFcLALA (Fc fusion)
chain: GNCWLRQAKNGRCQVLYKTELSKEECCSTGRLSTSWTEEDVNDNTLFKWMIFNGGAPNCIPCKETCENVDCGPGKKCRMNKENEPRCVCAPDCSNITWKGPVCGLDGKTYRNECALLKARCKEQPELEVQYQGRCKKTCRDVFCPGSSTCVVDQTNNAYCVTCNRICPEPASSEQYLCGNDGVTYSSACHLRKATCLLGRSIGLAYEGKCIKAKSCEDIQCTGGKKCLWDFKVGRGRCSLCDELCPDSKSDEPVCASDNATYASECAMKEAACSSGVLLEVKHSGSCNSISEDTEEEEEDEDQDYSFPISSILEW[no letters for human IgG1 Fc with changes]
B3: FS315C66A/K75N/C77T-hFcLALA (Fc fusion)
chain: GNCWLRQAKNGRCQVLYKTELSKEECCSTGRLSTSWTEEDVNDNTLFKWMIFNGGAPNCIPCKETAENVDCGPGNKTRMNKKNKPRCVCAPDCSNITWKGPVCGLDGKTYRNECALLKARCKEQPELEVQYQGRCKKTCRDVFCPGSSTCVVDQTNNAYCVTCNRICPEPASSEQYLCGNDGVTYSSACHLRKATCLLGRSIGLAYEGKCIKAKSCEDIQCTGGKKCLWDFKVGRGRCSLCDELCPDSKSDEPVCASDNATYASECAMKEAACSSGVLLEVKHSGSCNSISEDTEEEEEDEDQDYSFPISSILEW[no letters for human IgG1 Fc with changes]
notes: Hyperglycosylation variant
B4: FS315K75N/C77T/K82T-hFcLALA (Fc fusion)
chain: GNCWLRQAKNGRCQVLYKTELSKEECCSTGRLSTSWTEEDVNDNTLFKWMIFNGGAPNCIPCKETCENVDCGPGNKTRMNKTNKPRCVCAPDCSNITWKGPVCGLDGKTYRNECALLKARCKEQPELEVQYQGRCKKTCRDVFCPGSSTCVVDQTNNAYCVTCNRICPEPASSEQYLCGNDGVTYSSACHLRKATCLLGRSIGLAYEGKCIKAKSCEDIQCTGGKKCLWDFKVGRGRCSLCDELCPDSKSDEPVCASDNATYASECAMKEAACSSGVLLEVKHSGSCNSISEDTEEEEEDEDQDYSFPISSILEW[no letters for human IgG1 Fc with changes]
notes: Hyperglycosylation variant
B5: FS315K82E-hFcLALA (Fc fusion)
chain: GNCWLRQAKNGRCQVLYKTELSKEECCSTGRLSTSWTEEDVNDNTLFKWMIFNGGAPNCIPCKETCENVDCGPGKKCRMNKENKPRCVCAPDCSNITWKGPVCGLDGKTYRNECALLKARCKEQPELEVQYQGRCKKTCRDVFCPGSSTCVVDQTNNAYCVTCNRICPEPASSEQYLCGNDGVTYSSACHLRKATCLLGRSIGLAYEGKCIKAKSCEDIQCTGGKKCLWDFKVGRGRCSLCDELCPDSKSDEPVCASDNATYASECAMKEAACSSGVLLEVKHSGSCNSISEDTEEEEEDEDQDYSFPISSILEW[no letters for human IgG1 Fc with changes]
B6: FS315K(76,81,82)E-hFcLALA (Fc fusion)
chain: GNCWLRQAKNGRCQVLYKTELSKEECCSTGRLSTSWTEEDVNDNTLFKWMIFNGGAPNCIPCKETCENVDCGPGKECRMNEENKPRCVCAPDCSNITWKGPVCGLDGKTYRNECALLKARCKEQPELEVQYQGRCKKTCRDVFCPGSSTCVVDQTNNAYCVTCNRICPEPASSEQYLCGNDGVTYSSACHLRKATCLLGRSIGLAYEGKCIKAKSCEDIQCTGGKKCLWDFKVGRGRCSLCDELCPDSKSDEPVCASDNATYASECAMKEAACSSGVLLEVKHSGSCNSISEDTEEEEEDEDQDYSFPISSILEW[no letters for human IgG1 Fc with changes]
B7: FS315K(76,81,82)E/V88E-hFcLALA (Fc fusion)
chain: GNCWLRQAKNGRCQVLYKTELSKEECCSTGRLSTSWTEEDVNDNTLFKWMIFNGGAPNCIPCKETCENVDCGPGKECRMNEENKPRCECAPDCSNITWKGPVCGLDGKTYRNECALLKARCKEQPELEVQYQGRCKKTCRDVFCPGSSTCVVDQTNNAYCVTCNRICPEPASSEQYLCGNDGVTYSSACHLRKATCLLGRSIGLAYEGKCIKAKSCEDIQCTGGKKCLWDFKVGRGRCSLCDELCPDSKSDEPVCASDNATYASECAMKEAACSSGVLLEVKHSGSCNSISEDTEEEEEDEDQDYSFPISSILEW[no letters for human IgG1 Fc with changes]
B8: FS315R78E/K82E-hFcLALA (Fc fusion)
chain: GNCWLRQAKNGRCQVLYKTELSKEECCSTGRLSTSWTEEDVNDNTLFKWMIFNGGAPNCIPCKETCENVDCGPGKKCEMNKENKPRCVCAPDCSNITWKGPVCGLDGKTYRNECALLKARCKEQPELEVQYQGRCKKTCRDVFCPGSSTCVVDQTNNAYCVTCNRICPEPASSEQYLCGNDGVTYSSACHLRKATCLLGRSIGLAYEGKCIKAKSCEDIQCTGGKKCLWDFKVGRGRCSLCDELCPDSKSDEPVCASDNATYASECAMKEAACSSGVLLEVKHSGSCNSISEDTEEEEEDEDQDYSFPISSILEW[no letters for human IgG1 Fc with changes]
B9: FS315R78E/K(82,84)E-hFcLALA (Fc fusion)
chain: GNCWLRQAKNGRCQVLYKTELSKEECCSTGRLSTSWTEEDVNDNTLFKWMIFNGGAPNCIPCKETCENVDCGPGKKCEMNKENEPRCVCAPDCSNITWKGPVCGLDGKTYRNECALLKARCKEQPELEVQYQGRCKKTCRDVFCPGSSTCVVDQTNNAYCVTCNRICPEPASSEQYLCGNDGVTYSSACHLRKATCLLGRSIGLAYEGKCIKAKSCEDIQCTGGKKCLWDFKVGRGRCSLCDELCPDSKSDEPVCASDNATYASECAMKEAACSSGVLLEVKHSGSCNSISEDTEEEEEDEDQDYSFPISSILEW[no letters for human IgG1 Fc with changes]
B10: FS315G74N/K76T/P85T-hFcLALA (Fc fusion)
chain: GNCWLRQAKNGRCQVLYKTELSKEECCSTGRLSTSWTEEDVNDNTLFKWMIFNGGAPNCIPCKETCENVDCGPNKTCRMNKKNKTRCVCAPDCSNITWKGPVCGLDGKTYRNECALLKARCKEQPELEVQYQGRCKKTCRDVFCPGSSTCVVDQTNNAYCVTCNRICPEPASSEQYLCGNDGVTYSSACHLRKATCLLGRSIGLAYEGKCIKAKSCEDIQCTGGKKCLWDFKVGRGRCSLCDELCPDSKSDEPVCASDNATYASECAMKEAACSSGVLLEVKHSGSCNSISEDTEEEEEDEDQDYSFPISSILEW[no letters for human IgG1 Fc with changes]
B11: FS315C66S/K75N/C77T-hFcLALA (Fc fusion)
chain: GNCWLRQAKNGRCQVLYKTELSKEECCSTGRLSTSWTEEDVNDNTLFKWMIFNGGAPNCIPCKETSENVDCGPGNKTRMNKKNKPRCVCAPDCSNITWKGPVCGLDGKTYRNECALLKARCKEQPELEVQYQGRCKKTCRDVFCPGSSTCVVDQTNNAYCVTCNRICPEPASSEQYLCGNDGVTYSSACHLRKATCLLGRSIGLAYEGKCIKAKSCEDIQCTGGKKCLWDFKVGRGRCSLCDELCPDSKSDEPVCASDNATYASECAMKEAACSSGVLLEVKHSGSCNSISEDTEEEEEDEDQDYSFPISSILEW[no letters for human IgG1 Fc with changes]
notes: Hyperglycosylation variant
B12: FS315K(76,81,82)A-hFcLALA (Fc fusion)
chain: GNCWLRQAKNGRCQVLYKTELSKEECCSTGRLSTSWTEEDVNDNTLFKWMIFNGGAPNCIPCKETCENVDCGPGKACRMNAANKPRCVCAPDCSNITWKGPVCGLDGKTYRNECALLKARCKEQPELEVQYQGRCKKTCRDVFCPGSSTCVVDQTNNAYCVTCNRICPEPASSEQYLCGNDGVTYSSACHLRKATCLLGRSIGLAYEGKCIKAKSCEDIQCTGGKKCLWDFKVGRGRCSLCDELCPDSKSDEPVCASDNATYASECAMKEAACSSGVLLEVKHSGSCNSISEDTEEEEEDEDQDYSFPISSILEW[no letters for human IgG1 Fc with changes]

Key:
[1] = target: T1, Activin A (R&D Systems, Catalog number …); test: cell-based or functional assay
[2] = target: T2, Myostatin (R&D Systems, Catalogue …); test: cell-based or functional assay
[3] = target: T3, BMP-10 (R&D Systems, Catalogue number …); test: BIAcore SPR; fusion captured on anti-human Fc; BMP-10 as analyte
[4] = target: T2, Myostatin (R&D Systems, Catalogue …); test: BIAcore SPR; fusion captured on anti-human Fc; myostatin as analyte (5-0.31 nM)
[5] = target: T4, BMP-9 (R&D Systems, Catalogue number …); test: BIAcore SPR; fusion captured on anti-human Fc; BMP-9 as analyte

| Binder | Activin A IC50 (nM), luciferase gene reporter assay (Smad3, A204 cells) [1] | Myostatin IC50 (nM), luciferase gene reporter assay (Smad3, A204 cells) [2] | binding result [3] | Kd [4] | binding result [5] |
| --- | --- | --- | --- | --- | --- |
| B1 | 1 nM | 0.6 nM | – | – | – |
| B2 | 1.1 nM | 0.7 nM | – | – | – |
| B3 | – | – | no binding (tested: 25-0.190 nM) | 24.4 pM | no binding (tested: 25-0.190 nM) |
| B4 | 1.1 nM | 0.7 nM | no binding (tested: 25-0.190 nM) | 40.3 pM | – |
| B5 | 0.6 nM | – | – | – | – |
| B6 | 0.7 nM | – | – | – | – |
| B7 | 0.6 nM | 0.6 nM | – | – | – |
| B8 | 1 nM | – | – | – | – |
| B9 | 0.6 nM | 0.5 nM | – | – | – |
| B10 | 1.3 nM | 1 nM | – | – | – |
| B11 | 2.1 nM | 1.5 nM | no binding (tested: 25-0.190 nM) | 6.4 pM | no binding (tested: 25-0.190 nM) |
| B12 | 0.7 nM | – | – | – | – |
